Measured values published in the supplement of paper PMC4967469.
By IC50 is meant the dose at which the fit gives 50% viability; fits outside the tested doses are given as limits. For AUC the same curve is integrated over the 256-fold range of doses and scaled to a fraction; values near 1 show little effect. Any top dose called inferred was derived from the fitted curves, not read from the paper. An entry number marks a drug with two screens in the source, which often give different values.

The cell lines below were run with NC(=O)[C@@H](CCC(F)(F)F)N(Cc1ccc(-c2ncon2)cc1F)S(=O)(=O)c1ccc(Cl)cc1 [BMS-708163] (assay: Viability of human cancer cell lines after 72 h of drug (GDSC screen)). Conditions: screen: GDSC drug entry 205; top dose inferred.
Method: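 Human cancer cell lines in 384-well plates, medium with 10% serum, drug for 72 h over a 256-fold dose range (nine 2-fold or five 4-fold steps up to the top dose). Adherent lines were fixed and stained with the nucleic acid dye Syto60, suspension lines read with resazurin; signal relative to control wells, capped at 0 and 100%. One two-parameter sigmoid per drug and line, fitted in a mixed model over all curves with the slope shared within a line.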

Cell Line | AUC | IC50
SW1116 (large intestine, adherent, top dose 10.24 µM) | 0.985 | > 10.2 µM
SW1271 (small cell lung carcinoma, adherent, top dose 10.24 µM) | 0.983 | > 10.2 µM
SW1417 (large intestine, adherent, top dose 10.24 µM) | 0.962 | > 10.2 µM
SW1463 (large intestine, adherent, top dose 10.24 µM) | 0.968 | > 10.2 µM
SW1573 (lung adenocarcinoma, adherent, top dose 10.24 µM) | 0.981 | > 10.2 µM
SW1710 (bladder, adherent, top dose 10.24 µM) | 0.985 | > 10.2 µM
SW1783 (glioma, adherent, top dose 10.24 µM) | 0.99 | > 10.2 µM
SW1990 (pancreas, adherent, top dose 10.24 µM) | 0.982 | > 10.2 µM
Saos-2 (osteosarcoma, adherent, top dose 10.24 µM) | 0.981 | > 10.2 µM
SiHa (cervix, adherent, top dose 10.24 µM) | 0.986 | > 10.2 µM
T47D (breast, adherent, top dose 10.24 µM) | 0.97 | > 10.2 µM
T84 (large intestine, adherent, top dose 10.24 µM) | 0.977 | > 10.2 µM
T98G (glioma, adherent, top dose 10.24 µM) | 0.99 | > 10.2 µM
T-24 (bladder, adherent, top dose 10.24 µM) | 0.988 | > 10.2 µM
T-T (oesophagus, adherent, top dose 10.24 µM) | 0.987 | > 10.2 µM
TALL-1 (T-cell lymphoblastic leukaemia, suspension, top dose 10.24 µM) | 0.99 | > 10.2 µM
TC-71 (Ewing sarcoma, adherent, top dose 10.24 µM) | 0.992 | > 10.2 µM

Cell Line | AUC | IC50
TCCSUP (bladder, adherent, top dose 10.24 µM) | 0.985 | > 10.2 µM
TE-1 (oesophagus, adherent, top dose 10.24 µM) | 0.977 | > 10.2 µM
TE-4 (oesophagus, adherent, top dose 10.24 µM) | 0.987 | > 10.2 µM
TE-5 (oesophagus, adherent, top dose 10.24 µM) | 0.984 | > 10.2 µM
TE-6 (oesophagus, adherent, top dose 10.24 µM) | 0.974 | > 10.2 µM
TE-8 (oesophagus, adherent, top dose 10.24 µM) | 0.97 | > 10.2 µM
TE-9 (oesophagus, adherent, top dose 10.24 µM) | 0.987 | > 10.2 µM
TE-10 (oesophagus, adherent, top dose 10.24 µM) | 0.982 | > 10.2 µM
TE-11 (oesophagus, adherent, top dose 10.24 µM) | 0.99 | > 10.2 µM
TE-12 (oesophagus, suspension, top dose 10.24 µM) | 0.961 | > 10.2 µM
TE-15 (oesophagus, suspension, top dose 10.24 µM) | 0.96 | > 10.2 µM
TE-441-T (rhabdomyosarcoma, adherent, top dose 10.24 µM) | 0.985 | > 10.2 µM
TGBC1TKB (biliary tract, adherent, top dose 10.24 µM) | 0.989 | > 10.2 µM
TGBC11TKB (stomach, adherent, top dose 10.24 µM) | 0.986 | > 10.2 µM
TGBC24TKB (biliary tract, adherent, top dose 10.24 µM) | 0.989 | > 10.2 µM
TGW (neuroblastoma, adherent, top dose 10.24 µM) | 0.992 | > 10.2 µM
THP-1 (acute myeloid leukaemia, suspension, top dose 10.24 µM) | 0.981 | > 10.2 µM

Same assay, conditions: top dose 5 µM; screen: GDSC drug entry 1072; top dose inferred

Cell Line | AUC | IC50
SNU-C5 (large intestine, adherent) | 0.976 | > 5 µM
SU-DHL-10 (B-cell lymphoma, suspension) | 0.997 | > 5 µM
SUP-B8 (B-cell leukaemia, suspension) | 0.983 | > 5 µM
SW48 (large intestine, adherent) | 0.931 | > 5 µM
SW1116 (large intestine, adherent) | 0.932 | > 5 µM
TE-4 (oesophagus, adherent) | 0.987 | > 5 µM
